Over roughly 33,000 sequences, “E-score (-0.5 to 0.5)” has its median near -0.012; the highest 2% begin near 0.27. Some of the results follow.
Target: T1, Vhr1 (UniProt P40522)
T1 sequence: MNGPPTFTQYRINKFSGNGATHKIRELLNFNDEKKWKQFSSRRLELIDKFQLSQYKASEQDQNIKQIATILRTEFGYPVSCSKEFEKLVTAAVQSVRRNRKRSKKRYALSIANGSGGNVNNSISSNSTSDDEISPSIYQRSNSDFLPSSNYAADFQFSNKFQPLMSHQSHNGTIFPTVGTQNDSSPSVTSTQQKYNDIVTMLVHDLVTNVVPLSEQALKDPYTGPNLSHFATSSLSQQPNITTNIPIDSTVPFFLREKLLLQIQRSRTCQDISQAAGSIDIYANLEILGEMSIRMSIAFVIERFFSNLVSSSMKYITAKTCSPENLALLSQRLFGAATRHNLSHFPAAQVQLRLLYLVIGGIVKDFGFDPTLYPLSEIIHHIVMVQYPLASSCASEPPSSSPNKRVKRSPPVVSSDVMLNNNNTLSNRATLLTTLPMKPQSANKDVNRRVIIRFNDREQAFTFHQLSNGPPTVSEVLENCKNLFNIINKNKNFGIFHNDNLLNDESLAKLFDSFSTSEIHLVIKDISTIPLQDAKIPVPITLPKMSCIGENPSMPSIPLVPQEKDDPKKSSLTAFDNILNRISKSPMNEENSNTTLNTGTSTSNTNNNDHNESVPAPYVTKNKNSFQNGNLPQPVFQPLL
Assay: PBM E-score (8-mer binding enrichment) (E-score (-0.5 to 0.5)); higher = stronger / more preferred TF binding; most listed sequences are background and not binding sites
Settings: protein concentration: 200 nM; construct: GST-full length
Outline: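 The E-score, a modified Wilcoxon-Mann-Whitney statistic, was computed by the Universal PBM Analysis Suite for every ungapped eight-base word pooled with its reverse complement. Scans behind it were normalised with masliner after bound GST-tagged yeast transcription factors were detected with fluorescent anti-GST. The proteins, at about 100-200 nM, had been applied to universal all-10-mer Agilent arrays made double-stranded by primer extension.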

Row | Sequence | PBM E-score
1 | GTCGCACA | 0.0469
2 | GCGCCAAA | -0.0935
3 | CCTCGGAC | -0.13
4 | ACTCGACG | 0.269
5 | GCCTCCGC | -0.022
6 | CCGATTAA | -0.109
7 | GCCGTCCC | -0.0648
8 | CATCTGTC | -0.059
9 | CCAGTCCA | -0.0216
10 | CCCAAATC | -0.0483
11 | AACAGGAA | -0.127
12 | AGCAGGTC | -0.0671
13 | AGACTGCA | 0.0124
14 | CCAGGATC | 0.0101
15 | ATCACTCG | 0.113
16 | AGCTGCAG | -0.0288
17 | GTTTTAGA | -0.194
18 | CCTAAAGG | -0.299
19 | GCTCCTTA | -0.134
20 | TCGCCCCA | 0.0408
21 | AACTACGA | 0.0612
22 | AAGCACTA | -0.0763
23 | CACTAGGA | -0.0545
24 | TATTGGCA | 0.162
25 | ATGTTAGA | -0.223

Row | Sequence | PBM E-score
26 | CTATTATA | 0.0973
27 | CCACTACC | 0.0705
28 | GGAGCGCC | 0.00749
29 | CCTCCGAC | -0.0621
30 | CTAACACA | 0.269
31 | CCCGAGCC | 0.104
32 | AACGAATG | 0.0805
33 | CAGTATAC | 0.231
34 | CAAATACG | -0.187
35 | CGGGGTTC | 0.0432
36 | GGGGGAAA | -0.0722
37 | CTAAATGC | -0.00679
38 | AAAGGGAA | -0.125
39 | AAATCATG | 0.29
40 | CCGTAAAG | -0.182
41 | GGCGCCCA | 0.0282
42 | CTGGTGGA | -0.0102
43 | GGAGCCCC | -0.144
44 | CAAAGAGC | -0.135
45 | CTTTTCAA | -0.129
46 | ATTCAGCA | 0.0595
47 | CGCCGAGC | 0.059
48 | CCTTGTGC | -0.0588
49 | TGCCCCAA | 0.0393
50 | CGTAGACA | -0.33

Row | Sequence | PBM E-score
51 | GAGGTTAC | 0.0302
52 | GAAAATAC | -0.00171
53 | ATGCGAAG | -0.137
54 | CCAAAATA | -0.00401
55 | AATCGATG | 0.107
56 | AAAGGTAC | -0.0793
57 | TCCCCCGA | 0.00078
58 | CATGTCAC | 0.0859
59 | ATACTGAG | 0.302
60 | CAACAGAA | -0.128
61 | ATTAGAAG | 0.0266
62 | AGGTTGCA | 0.0347
63 | ATCCGAGG | 0.197
64 | GATGGTTA | 0.191
65 | CAGACAAG | -0.0442
66 | AAATCGAA | -0.079
67 | CCAGGAGG | 0.00619
68 | CAGGCCAG | -0.0406
69 | ACGTTCGG | -0.08
70 | GCACGAGC | 0.126
71 | GCATAGAC | -0.104
72 | AGAAACAT | -0.0987
73 | AGGGACCA | -0.117
74 | GCTCCGCC | 0.118
75 | ACTGTTAG | 0.0101

Row | Sequence | PBM E-score
76 | AGTCTACC | -0.0695
77 | GCGTACTA | -0.0551
78 | ATGAGCAA | 0.0779
79 | AAGACGAT | -0.164
80 | AGCGCGCC | -0.0121
81 | GACACCCC | -0.0121
82 | AGGACAGC | -0.0735
83 | CACTAACC | 0.0442
84 | ACAAGTGA | -0.154
85 | CGAAGTGA | 0.108
86 | AACGATCT | -0.0872
87 | ATACAGGA | 0.0562
88 | GCTACTCA | 0.271
89 | AGCGCACT | -0.205
90 | ACCATCGG | 0.064
91 | ACCGCGTA | 0.0793
92 | CCAACGGA | -0.00786
93 | AGAAACTC | -0.051
94 | CCGGTCAC | 0.12
95 | CTCAACTC | -0.0523
96 | CCAAGGTC | -0.0964
97 | GCGGTCTA | 0.0229
98 | AGCAATTG | -0.308
99 | ACGCAGCT | -0.045
100 | GGAACCAC | 0.214

Row | Sequence | PBM E-score
101 | CATCCAGG | 0.0327
102 | ATATACTC | 0.191
103 | CACTATAA | -0.121
104 | AAGCCGGC | -0.0871
105 | AGCGTATA | 0.179
106 | CCTTGTAC | -0.106
107 | CCCCATAC | 0.0656
108 | AGCTCAGG | 0.107
109 | AGTTTTGG | -0.143
110 | GTGACCTA | -0.16
111 | AAATCCGA | 0.0516
112 | CGTGGTAG | 0.0791
113 | CGCTGATC | 0.115
114 | TAACCGAA | -0.128
115 | ATCTGATC | 0.085
116 | GGTGAATA | -0.00242
117 | AAACAGAC | 0.034
118 | ACGGACTA | -0.0237
119 | CCGTCGCC | 0.0171
120 | CGCTTAAG | -0.225
121 | AGGGCATC | -0.246
122 | CATGCGTA | 0.182
123 | CCAAGAAA | -0.0428
124 | TGCACGCA | -0.0577
125 | AATACTAA | -0.0324

Row | Sequence | PBM E-score
126 | ATCAAAAT | -0.0589
127 | GGTAGGAA | -0.029
128 | AACGTTCA | -0.331
129 | AAGGGCCG | -0.242
130 | GGTACCCA | -0.0268
131 | CTCGGGCA | 0.0687
132 | CTTAGTGA | 0.151
133 | AGACCATA | 0.18
134 | CGAGCCGA | 0.203
135 | GCAAGTCC | -0.144
136 | AACATGCC | 0.0507
137 | CCGCTACA | 0.0275
138 | ATTACCAA | 0.0709
139 | CAACTACA | 0.177
140 | CCCTGGGA | -0.168
141 | GCCAGCCA | 0.0444
142 | ATGTACCA | 0.155
143 | CGGTGGAC | 0.0511
144 | GACATGGA | 0.136
145 | CCTGGAGA | -0.0828
146 | GATGTGAC | 0.227
147 | GATCGATC | 0.0343
148 | CACTCGAG | -0.029
149 | CCTCCTCC | -0.0203
150 | GCTTACAA | -0.0422

Row | Sequence | PBM E-score
151 | AGCCTCGA | 0.088
152 | AAAGGGAT | -0.232
153 | AGAAAGCC | -0.141
154 | ACCCGCGG | 0.275
155 | CTCTCCTC | -0.179
156 | CGTTCTAC | -0.0859
157 | CAAGAAAA | -0.133
158 | TACCCGCA | 0.238
159 | CAATGGAG | -0.0266
160 | AGTCACCG | 0.418
161 | AGAAACCC | -0.00112
162 | TAATGTAA | 0.14
163 | AGCAGCCA | -0.128
164 | GACTTGAA | -0.152
165 | CCCTGAAG | -0.187
166 | ACAATCGT | 0.0768
167 | GGTACTAA | 0.166
168 | GTGGCTAA | 0.173
169 | ACGATCCC | 0.0196
170 | CCAAGCGG | 0.0627
171 | ACCTGATA | 0.145
172 | CCCGTTCA | -0.0417

From the supplement of paper PMC3334620
